# Results published in PubChem BioAssay AID1347120 (National Center for Advancing Translational Sciences (NCATS), 2019).
# Values joined by “and” are separate entries in the source; they are usually repeats but may differ in a detail not shown here. Identical values can stand only once. Out of some 390,000 compounds screened, about 930 (0.24%) were called active. The shares of active, inactive and inconclusive entries below differ from those in the screen. Calls follow the shape of the dose curve; as a rule, active = well fitted activation curve with a large enough effect; inconclusive = small, poorly fitted or top-dose-only effect; inactive = no such curve, though single readings can be large or run the other way. Potencies of inconclusive entries are doubtful fits and often do not repeat.
# Experiment: qHTS for Suppressors of FUS Proteinopathy: Primary screen using FUS-linked yeast assay; also: nearly all actives have a fitted effect of over 55% in size
# Conditions: S. cerevisiae FUS-expressing, OD600, 24 h; Potency: growth rescue; series mostly up to 76.6 µM
# Method in brief: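 S. cerevisiae expressing FUS from galactose induction served as the toxicity model. Growth after 24hr at 30C, read as absorbance at 600 nm, indicates suppression of toxicity; compounds dosed at several concentrations.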
# Potency is read from the fitted curve at half-maximal effect; tags tell the direction and shape of the fitted curve.
row,Compound,Potency
1,N#CC1=C2SCN(Cc3ccco3)CN2C(=O)CC1c1ccc(Cl)cc1 (centres undefined),active: 20 µM
2,COc1ccc(CCNC(=O)Nc2ccc3c(c2)[C@@]2(CC(=O)N(CC(C)C)C2c2ccccc2)C(=O)N3C)cc1OC (some centres undefined),"inconclusive: 7.94 µM [activator, partial curve]"
3,COc1ccc(C(C(=O)NC(C)(C)C)n2c(=O)c(-c3cc4ccccc4[nH]3)nc3ccccc32)cc1 (centres undefined),"inconclusive: 17.8 µM [activator, partial curve]"
4,O=C(NCc1ccccc1)c1csc(-c2cccnc2)n1,inactive
5,COc1ccc(S(=O)(=O)N2CCCCC2)cc1NC(=S)Nc1cccc(Cl)c1C,active: 2.82 µM
6,Cc1cc(O)c2c(CN3CCN(Cc4ccccc4)CC3)cc(=O)oc2c1,inactive
7,C=CC[C@@H](CC(=O)N[C@@H](CO)Cc1ccccc1)C(=O)N[C@H](COC(=O)[C@@H](CC=C)CC(=O)OC(C)(C)C)Cc1ccccc1,"inconclusive: 20 µM [activator, partial curve, poor fit]"
8,CC(=O)c1cccc(-c2ccnc3c2CC(C(=O)Nc2cccc(Oc4ccccc4)c2)O3)c1 (centres undefined),"inconclusive: 28.2 µM [activator, single point]"
9,C#CCOCCOCCOCCNc1nc(N2CCN(C(=O)C([C@@H](C)CC)n3cc(C(N)COC(=O)C(F)(F)F)nn3)CC2)nc(N2CCN(C(=O)[C@H](Cc3cc4ccccc4[nH]3)n3cc(C(N)CO)nn3)CC2)n1 (some centres undefined),"inconclusive: 28.2 µM [activator, single point]"
10,O=C(Nc1ccc(Br)cc1)c1cc(-c2ccncc2)nc2ccccc12,"inconclusive: 28.2 µM [activator, single point]"
11,COc1ccc2cc(C3CC=C(COC(C)=O)CN3S(=O)(=O)c3ccccc3[N+](=O)[O-])n(C(=O)OC(C)(C)C)c2c1 (centres undefined),"inconclusive: 39.8 µM [activator, single point]"
12,CCOc1ccccc1NC(=O)CCc1c(C)nc2c(c(C)nn2-c2ccccc2)c1C,inactive
13,COc1cccc(NC(CNS(=O)(=O)c2ccc(Cl)cc2)c2ccccc2)c1 (centres undefined),"inconclusive: 7.08 µM [activator, partial curve, poor fit]"
14,O=C(O)/C=C/c1cn(-c2ccccc2)nc1-c1ccc2c(c1)OCCO2,inactive
15,O=C(N/N=C/c1cc(Cl)ccc1O)c1ccc(Br)cc1,"inconclusive: 7.08 µM [activator, full curve]"
16,NS(=O)(=O)c1ccc(NC(=O)COC(=O)c2c3c(nc4ccccc24)/C(=C\c2ccc4c(c2)OCO4)CCC3)cc1,"inconclusive: 28.2 µM [activator, partial curve, poor fit]"
17,C#CCNC(=O)C[C@H]1C[C@@]2(C(=O)OC)C(=C[C@H](C3CCCC3)O[C@@H]2C)N(CCc2ccc(OC)c(OC)c2)C1=O,inactive
18,CCCCC[C@H](C)N1C[C@H](COCc2ccccc2)Oc2cc(N3CCC[C@H]3C(N)=O)ccc2S1(=O)=O,"inconclusive: 12.6 µM [activator, partial curve, poor fit]"
19,CCc1cccc(NC(=O)C2CCC(CNS(=O)(=O)c3ccc4c(c3)CCCC(=O)N4)CC2)c1 (centres undefined),inactive
20,COc1ccc(Nc2c(-c3cc4ccccc4o3)nc3nc(C)cc(C)n23)cc1,"inconclusive: 20 µM [activator, partial curve, poor fit]"

row,Compound,Potency
1,CCc1nc2ccc(C(=O)NCc3ccc(SC)cc3)cc2nc1CC,"inconclusive: 35.5 µM [activator, partial curve, poor fit]"
2,CCCCCCCCCCOC(=O)Cn1c(COc2ccc(C)cc2)[n+](C)c2ccccc21,"inconclusive: 39.8 µM [activator, partial curve, poor fit]"
3,O=C(C1CC(=O)N(c2ccc3c(c2)OCCO3)C1)N1CCN(c2ccccc2O)CC1 (centres undefined),"inconclusive: 5.62 µM [activator, full curve]"
4,COc1ccc(-c2c(C)nn3c(N4CCN(c5ccccc5F)CC4)cc(C)nc23)cc1OC,inactive
5,COCCN(C(=O)c1ccc(N2C(=O)c3ccccc3C2=O)cc1)c1c(N)n(CC(C)C)c(=O)[nH]c1=O,inactive
6,CC1CCCN(S(=O)(=O)c2ccc(N3CCCCS3(=O)=O)cc2)C1 (centres undefined),inactive
7,COc1ccc(-n2c(C)nc3cc(C(=O)NC4CCCCCC4)ccc32)cc1,inactive
8,NNC(=O)c1c[nH]c2ccc(OCc3ccccc3)cc12,"inconclusive: 39.8 µM [activator, partial curve, poor fit]"
9,COc1cccc(C2=CC(=O)C[C@H](c3ccc4c(c3)OCO4)C2)c1,inactive
10,C=CCc1ccc(OCc2ccc(C(=O)Nc3ccc(NC(C)=O)cc3)o2)c(OC)c1,"inconclusive: 8.91 µM [activator, single point] and inconclusive: 44.7 µM [activator, single point]"
11,CCCC1(c2ccccc2)NC(=O)N(CC(=O)c2[nH]c(C)c(C(=O)OCC)c2C)C1=O (centres undefined),active: 22.4 µM
12,Cn1c(-c2c(N)n(C3CCCC3)c3nc4ccccc4nc23)nc2ccccc21,"inconclusive: 50.1 µM [activator, single point]"
13,Cc1cccc(Cn2cnc3c(oc4ccccc43)c2=O)c1,inactive
14,S=C1NC2=C(CCCC2=C2SCCS2)C(c2ccccc2)N1 (centres undefined),"inconclusive: 56.2 µM [activator, partial curve, poor fit]"
15,Cc1cccc(N2CCN(C(=O)CCNS(=O)(=O)c3ccc4c(c3)oc(=O)n4C)CC2)c1C,inactive
16,C=CCSC1=C(C#N)C(c2ccccc2OCC)C(C#N)C(=O)N1 (centres undefined),inactive
17,COc1ccc(-c2noc(CCCc3ccccc3)n2)cc1OC,"inconclusive: 25.1 µM [activator, single point]"
18,CC(=O)Nc1cccc(NC(=O)C(=O)c2cn(CC(=O)N3CCCCC3)c3ccccc23)c1,"inconclusive: 28.2 µM [activator, single point]"
19,COc1ccc(CCN(Cc2cccs2)S(=O)(=O)c2ccc(F)cc2)cc1OC,"inconclusive: 25.1 µM [activator, partial curve, poor fit]"
